# In PubChem BioAssay AID504832 (National Center for Advancing Translational Sciences (NCATS), 2011):
# Screen size: about 310,000 compounds; about 18,000 (5.8%) were called active. This list was built around the results that the source calls inconclusive (neither active nor inactive); the mix of calls is not that of the screen. Calls follow the shape of the dose curve; as a rule, active = well fitted inhibition curve with a large enough effect; inconclusive = small, poorly fitted or top-dose-only effect, or another doubt; inactive = no such curve, though single readings can be large or run the other way. Potencies of inconclusive entries are left out as doubtful fits.
# Assay: Primary qHTS for delayed death inhibitors of the malarial parasite plastid, 48 hour incubation
# Conditions: P. falciparum luciferase growth in erythrocytes; series mostly up to 28.7 µM; activity change, negative = inhibition: at the top concentration
# In short: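 A one-generation exposure of luciferase-tagged malaria parasites in RPMI 1640/Albumax erythrocyte culture, 37 C and 5% CO2. Inhibition is inferred from decreased luminescence after adding detection reagent.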
# % is scaled to controls: 0 for no effect and ±100 for the full control effect; potency is read from the fitted curve at half-maximal effect; tags tell the direction and shape of the fitted curve.
SMILES,Potency,"activity change, negative = inhibition"
CCOc1ccc(CCNC(=O)COC(=O)C2=NNC(=O)CC2)cc1OCC,"inconclusive [inhibitor, single point]",–
CC(=O)Nc1ccc(NC(=O)c2cccc(S(=O)(=O)N(C)C3CCCCC3)c2)cc1,active: 7.38 µM,–
Cc1ccc(-c2cc(C(=O)NC3CCCCC3)no2)cc1,–,inactive: 69.8%
CC(C)C[C@@]12C(=O)N(c3cccc(Cl)c3)C(=O)N1[C@H](c1ccc(Br)cc1)[C@@H]1C(=O)N(C(C)(C)C)C(=O)[C@@H]12,active: 3.7 µM,–
S=C(Nc1ccc2nc(-c3ccccn3)c(-c3ccccn3)nc2c1)N1CCCCCC1,"inconclusive [inhibitor, single point]",–
N#CC1C=Cc2ccccc2N1C(=O)c1ccccc1 (stereo not drawn),–,inactive: -7.28%
Cc1cc2c(OCC(CNC(C)(C)C)OC(=O)c3ccccc3)cccc2[nH]1 (stereo not drawn),"inconclusive [inhibitor, partial curve, poor fit]",–
O=C(NC12CC3CC(CC(C3)C1)C2)N1CCC(O)CC1,"inconclusive [inhibitor, single point]",–
CC(=O)O[C@@]12CO[C@@H]1C[C@H](O)[C@@]1(C)C(=O)[C@H](O)C3=C(C)[C@@H](OC(=O)[C@H](O)[C@@H](NC(=O)c4ccccc4)c4ccccc4)C[C@@](O)([C@@H](OC(=O)c4ccccc4)C12)C3(C)C (stereo partly drawn),active: 0.0738 µM,–
COc1ccc(NC(=O)COc2ccc(C(=O)OCC(=O)N(C(C)C)C(C)C)cc2OC)cc1,–,inactive: -9.98%
CCOc1ccc(/C=N/NC(=O)C(C)Sc2ccccn2)cc1OCC (stereo not drawn),"inconclusive [inhibitor, partial curve, poor fit]",–
CC(NC(=O)c1cccs1)C(c1cccs1)N1CCOCC1 (stereo not drawn),–,inactive: -20.1%
COc1ccc(N=C2SC(CC(=O)Nc3ccccc3)C(=O)N2CC2CCCO2)cc1 (stereo not drawn),active: 11.7 µM,–
Cc1nc2ccc(OC(=O)c3ccccc3)cc2s1,–,inactive: -14%
COc1ccc(C)cc1S(=O)(=O)N(CC(=O)Nc1cccc([N+](=O)[O-])c1)c1ccccc1,"inconclusive [inhibitor, partial curve]",–
CCn1c(Cn2nnc(-c3ccccc3)n2)nnc1SCC(=O)Nc1ccc(C(C)=O)cc1,"inconclusive [inhibitor, single point]",–
COc1ccccc1C(=O)CSc1ccccn1,–,inactive: 89.2%
Cc1ccc(NC(=O)C(c2ccccc2)N2CCN(CC(=O)NC3CC3)CC2)cc1Cl (stereo not drawn),active: 5.22 µM,–
Cc1nn(C)c(C)c1CN(C)C(=O)c1nn2c(c1Br)NC(c1cccs1)CC2C(F)(F)F (stereo not drawn),"inconclusive [inhibitor, partial curve, poor fit]",–
Cc1oc2c(cc(NS(=O)(=O)c3cccs3)c3ccccc32)c1C(=O)OC(C)C,"inconclusive [inhibitor, single point]",–
Cc1cc(C)n(CCCN2C(=O)c3cccc4cccc(c34)C2=O)n1,–,inactive: -19.7%
CCOC(=O)C(=Cc1ccc(Br)cc1)C(=O)OCC,"inconclusive [inhibitor, partial curve, poor fit]",–
Cc1ccc(OCC(=O)Nc2ccccc2Sc2ccc(Cl)cc2)c([N+](=O)[O-])n1,"inconclusive [inhibitor, single point]",–

SMILES,Potency,"activity change, negative = inhibition"
CCOC(=O)C1=C(C)NC(SCC(=O)OC)=C(C#N)C1c1ccc(C(=O)OC)cc1 (stereo not drawn),"inconclusive [inhibitor, partial curve, poor fit]",–
CN1C(=O)C(C)(C)c2cc(S(=O)(=O)N3CCN(c4ccc(F)cc4)CC3)ccc21,"inconclusive [inhibitor, single point]",–
Cc1c(Cc2ccccc2)c(=O)oc2c(O)c(O)ccc12,"inconclusive [inhibitor, partial curve]",–
CC(C)(C)OC(=O)N/N=C\c1ccc([N+](=O)[O-])s1,"inconclusive [inhibitor, single point]",–
CCC(C)N(C(=O)CSc1nnc(-c2cccs2)n1C1CC1)C1CCS(=O)(=O)C1 (stereo not drawn),–,inactive: -5.56%
O=C(C1=C[C@@H](c2ccccc2)C[C@@H](OCc2ccc(CO)cc2)O1)N1CCOCC1,–,inactive: 38.3%
CCOc1ccc(N(CC(=O)N/N=C/c2ccccn2)S(=O)(=O)c2ccc(Cl)cc2)cc1,"inconclusive [inhibitor, single point]",–
Cc1cc2ncc(Cl)nc2cc1C,–,inactive: -7.44%
CCC1CCCCN1S(=O)(=O)c1ccc(C(=O)Nc2nnc(-c3ccccc3Cl)o2)cc1 (stereo not drawn),"inconclusive [inhibitor, single point]",–
O=C(Cn1ncc(Cl)c(Cl)c1=O)N1CCN(Cc2ccccc2)CC1,"inconclusive [inhibitor, single point]",–
COC(=O)C1=C(C)N(Cc2ccccc2)C(=S)N[C@H]1c1cccc(C(F)(F)F)c1,"inconclusive [inhibitor, partial curve]",–
CCOC(=O)c1sc(NC(=O)/C=C/c2cnn(CC)c2C)c(C(=O)OCC)c1C,"inconclusive [inhibitor, single point]",–
O=[N+]([O-])c1cc(C(F)(F)F)cc([N+](=O)[O-])c1N1CCCNCC1,"inconclusive [inhibitor, partial curve]",–
Cc1ccc(S(=O)(=O)Nc2ccccc2C(=O)NCC2CCCO2)cc1 (stereo not drawn),–,inactive: 19.4%
O=C(O)Cc1c(C(=O)O)nnn1-c1cccc(C(F)(F)F)c1,–,inactive: -14.7%
O=[N+]([O-])/C(C(=C(Cl)Cl)N1CCN(Cc2ccccc2)CC1)=C1\NCCN1Cc1ccc(Cl)nc1,"inconclusive [inhibitor, partial curve, poor fit]",–
O=C(c1ccc(N2CCCCC2)c([N+](=O)[O-])c1)N1CCN(c2ccccn2)CC1,–,inactive: -9.96%
COC(=O)c1[nH]c2cc(OC)ccc2c1NC(=O)c1ccc2c(c1)OCO2,"inconclusive [inhibitor, full curve, poor fit]",–
COc1ccc(-c2[nH]ncc2Oc2ccccc2OC)c(O)c1,"inconclusive [inhibitor, single point]",–
COc1ccc(CCNC(=O)c2cc3c(cc2Cl)N2CCCCCC2=NS3(=O)=O)cc1,"inconclusive [inhibitor, single point]",–
COc1ccccc1NC(=O)Cn1c(=O)n(C)c(=O)c2sc3c(c21)COC(C)(C)C3,"inconclusive [inhibitor, single point]",–
COc1cccc(/C=N/Nc2nccnc2Cl)c1O,"inconclusive [inhibitor, single point]",–
COc1ccc(CCC(C)N2CCOCC2)cc1 (stereo not drawn),–,inactive: 16.3%

SMILES,Potency,"activity change, negative = inhibition"
C/C(=N\NC(=O)CCCOc1ccc(Cl)cc1C)c1ccc(C)o1,–,inactive: -6.48%
COc1cc2ccccc2cc1C(=O)Nc1ccc(C)cc1,"inconclusive [inhibitor, single point]",–
Cc1ccc(NC(=O)CN(c2ccc(Cl)cc2)S(=O)(=O)c2cc([N+](=O)[O-])ccc2Cl)c(C)c1,"inconclusive [inhibitor, single point]",–
Cc1cccc(COc2ccc(/C=N/NC(=O)c3nnn(-c4nonc4N)c3C)cc2)c1,–,inactive: 27.3%
C/C(O)=C(\C#N)P(=O)(c1ccccc1)c1ccccc1,–,inactive: 0%
COc1ccc(OC)c(CNC(=O)C(C)n2nc(C)c3c(C)n(-c4ccccc4)nc3c2=O)c1 (stereo not drawn),–,inactive: -10.4%
CN(C)CCC=C1c2ccccc2C(C)(C)c2ccccc21,"inconclusive [inhibitor, single point]",–
O=C1C(Nc2cccc(O)c2)=C(N2CCCCC2)C(=O)c2ccccc21,"inconclusive [inhibitor, full curve, poor fit]",–
COc1cc(C2CC(=O)N3CN(c4ccccc4C)CSC3=C2C#N)cc(OC)c1OC (stereo not drawn),"inconclusive [inhibitor, partial curve]",–
Cc1ccc(S(=O)(=O)N2[C@@H](c3ccccc3F)C(C(=O)O)=CC[C@H]2c2cccs2)cc1,–,inactive: -17.2%
CCn1c(SCc2ccccc2)nnc1-c1cccs1,active: 9.28 µM,–
COc1ccc(C(=O)OCC(=O)NC(=O)NC(C)C)cc1OC,"inconclusive [inhibitor, partial curve, poor fit]",–
O=c1cc(O)c2sc3nc4c(c(C(F)(F)F)c3c2[nH]1)CCCCC4,active: 2.08 µM,–
Cn1cc(C=C2C(=O)OC3(CCCCC3)OC2=O)c2ccccc21,"inconclusive [inhibitor, single point]",–
CCS(=O)(=O)c1nc(S(=O)(=O)c2ccc(C)cc2)c(N2CC(C)CC(C)C2)s1 (stereo not drawn),"inconclusive [inhibitor, partial curve, poor fit]",–
COc1ccc(-c2csc(NC(=O)c3ccccc3OC)c2C(=O)O)cc1OC,"inconclusive [inhibitor, single point]",–
COCCn1c(CN2CCN(C(c3ccccc3)c3ccccc3)CC2)nc2c1c(=O)n(C)c(=O)n2C,active: 2.62 µM,–
CCOC(=O)C1(Cc2cccc(OC)c2)CCN(C/C=C/c2ccccc2)CC1,"inconclusive [inhibitor, single point]",–
CN(C)CCCNc1c2ccccc2nc2ccccc12,active: 1.04 µM,–
COc1ccc2oc(C(=O)OCC(=O)N(C)CC(=O)Nc3ccc(F)cc3)c(C)c2c1,–,inactive: 10.4%
COc1ccc(NC(=O)C(Sc2nnc3ccccn23)c2ccccc2)cc1Cl (stereo not drawn),–,inactive: -21.5%
Cc1nc(N2CCN(Cc3nc4ccccc4[nH]3)CC2)c2oc3ccccc3c2n1,"inconclusive [inhibitor, partial curve]",–
